Experimental data taken from PMC4336329 (PLoS ONE, 2015).
Screen size: about 310,000 compounds; about 14,000 (4.5%) showed an effect of 50% or more. Effects have a minus sign here. Some of the results follow.

biological target: human ether-à-go-go-related gene (hERG) potassium channel (human, UniProt Q12809); assay: primary screen, population patch clamp on CHO cells stably expressing hERG
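Further: peak tail current of the secondary pulse compared with the same well before compound.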

human ether-à-go-go-related gene (hERG) potassium channel, sequence (Q12809 whole entry, looked up): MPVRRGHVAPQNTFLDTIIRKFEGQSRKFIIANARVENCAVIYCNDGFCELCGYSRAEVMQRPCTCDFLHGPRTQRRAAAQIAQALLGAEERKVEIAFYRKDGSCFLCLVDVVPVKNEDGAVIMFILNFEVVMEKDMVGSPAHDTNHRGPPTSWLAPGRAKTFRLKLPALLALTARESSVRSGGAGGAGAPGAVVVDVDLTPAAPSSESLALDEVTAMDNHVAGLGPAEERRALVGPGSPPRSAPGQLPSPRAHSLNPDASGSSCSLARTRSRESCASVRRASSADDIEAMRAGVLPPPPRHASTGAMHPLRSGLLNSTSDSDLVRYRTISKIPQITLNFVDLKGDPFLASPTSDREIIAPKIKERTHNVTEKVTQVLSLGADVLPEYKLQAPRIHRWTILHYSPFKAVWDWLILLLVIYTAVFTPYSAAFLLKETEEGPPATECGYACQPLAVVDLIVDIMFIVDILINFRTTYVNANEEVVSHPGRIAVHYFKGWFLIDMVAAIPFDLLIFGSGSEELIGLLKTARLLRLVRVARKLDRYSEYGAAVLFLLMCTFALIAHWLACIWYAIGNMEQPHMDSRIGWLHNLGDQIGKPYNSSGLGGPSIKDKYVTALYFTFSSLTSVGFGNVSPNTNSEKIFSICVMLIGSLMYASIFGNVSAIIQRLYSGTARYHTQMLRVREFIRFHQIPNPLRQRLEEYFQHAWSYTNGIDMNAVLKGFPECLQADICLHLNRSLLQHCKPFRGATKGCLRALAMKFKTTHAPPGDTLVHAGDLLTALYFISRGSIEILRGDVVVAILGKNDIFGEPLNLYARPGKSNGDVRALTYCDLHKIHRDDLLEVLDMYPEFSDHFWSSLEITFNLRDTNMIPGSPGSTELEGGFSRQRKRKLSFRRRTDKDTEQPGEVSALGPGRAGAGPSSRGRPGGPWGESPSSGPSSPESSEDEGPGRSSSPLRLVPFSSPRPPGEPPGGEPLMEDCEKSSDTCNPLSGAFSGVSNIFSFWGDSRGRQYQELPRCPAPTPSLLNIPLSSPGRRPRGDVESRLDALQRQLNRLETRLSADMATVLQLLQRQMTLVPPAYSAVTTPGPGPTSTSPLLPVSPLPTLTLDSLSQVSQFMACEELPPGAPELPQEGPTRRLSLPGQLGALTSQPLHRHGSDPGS

Row | Compound | hERG current change (%, negative = inhibition) at 10uM
1 | CCc1ccc(S(=O)(=O)N2CCCC(N3CCN(c4ccc(OC)cc4)CC3)C2)cc1 (centres unmarked) | -65.4%
2 | O=C(Nc1cc(N2CCOCC2)ncn1)Nc1cccc2ccccc12 | -5.41%
3 | CCc1ccc(Nc2n[n+](-c3ccccc3)c(-c3ccc(N(CC)CC)cc3)s2)cc1.[Cl-] | -36%
4 | O=C(NC1CCOc2ccccc21)c1ccc(=O)[nH]c1 (centres unmarked) | 25.1%
5 | Cc1ccc(N2C(=O)c3cccc(Oc4ccc(Cl)cc4)c3C2=O)c(C)c1 | -2.97%
6 | COc1cccc(C2CCCN2Cc2nc(CCC(C)C)no2)c1 (centres unmarked) | -9.89%
7 | COc1cc(OC)cc(C(=O)N[C@H](C(=O)OCC(=O)NC(C)c2ccccc2)C(C)C)c1 (some centres unmarked) | -9.56%
8 | CN(C)CCNC(=O)c1csc(Nc2cccc3ccccc23)n1 | -55.4%
9 | CC(=O)c1cc(C#N)c(NCc2ccccc2)nc1C | 0.123%
10 | O=C(COC(=O)C12CC3CC(CC(O)(C3)C1)C2)NCCc1ccc(Cl)cc1 | -10.8%
11 | NC1=NC(=O)/C(=C\c2cc([N+](=O)[O-])ccc2Cl)S1 | -6.99%
12 | Cc1ccc(CNC(=O)C(C)OC(=O)c2cccs2)cc1 (centres unmarked) | 17.5%
13 | O=C(CCCNC(=O)c1ccc(Cl)cc1)NCc1ccccc1F | -11.6%
14 | Cc1ccc(C(=O)NC(=S)NNS(=O)(=O)c2ccc(C)cc2)cc1 | 3.32%
15 | CCN1CCN(CCNC(=O)CS(=O)(=O)Cc2nc(-c3ccc(C)cc3)oc2C)CC1 | 2.08%
16 | COc1ccc(CCNC(=O)c2cc(=O)n(C)c(=O)n2C)cc1OC | -0.242%
17 | O=C(CC(Cc1ccccc1)C(=O)O)Nc1cccc(C(F)(F)F)c1 (centres unmarked) | 24%
18 | CC(C)OP(=O)(c1ccccc1)c1ccccc1 | -3.71%
19 | Cc1cc2cc(CNC(=S)Nc3ccc(OC(F)F)cc3)ccc2n1C | 15.3%
20 | CCc1cc(-c2nc(N)ncc2-c2csc(C)n2)c(O)cc1OC | -7.42%
21 | Cc1cccc(N=C2NC(=O)CS2)c1 | 15.6%
22 | COc1cccc(-c2nnc(SCC(=O)Nc3ccc4c(c3)OCCO4)n2Cc2ccco2)c1 | -15.1%

Row | Compound | hERG current change (%, negative = inhibition) at 10uM
23 | COc1ccc(/C=C(\NC(=O)c2ccc(OC)c(OC)c2)C(=O)NCCc2c[nH]c3ccccc23)cc1 | -41.6%
24 | CC(=O)Nc1ccc(NC(=O)COC(=O)Cc2cccs2)cc1 | 12.4%
25 | OCCCn1c(-c2ccccc2)nc(=S)c2c1CCCC2 | 0.555%
26 | CC(Sc1nc2ccccc2c(=O)n1CC1CCCO1)C(=O)N(C)c1ccccc1 (centres unmarked) | -41.6%
27 | O=C1S/C(=C\c2ccc(O)c([N+](=O)[O-])c2)C(=O)N1Cc1cccc([N+](=O)[O-])c1 | 20.1%
28 | CCN(CC)C(=O)CSc1n[nH]c(=O)n1CCc1ccccc1 | 14.1%
29 | COc1ccc2c(c1)c(C(=O)N/N=C/c1cn(C)c3ccccc13)c(C)n2C | 2.17%
30 | Cc1nn(C)c(Oc2ccccc2)c1[N+](=O)[O-] | -3.58%
31 | CCN(CC)CCCn1c(C)cc2c(c1=O)C(c1ccc(OC)c(OC)c1OC)C(C#N)=C(N)O2 (centres unmarked) | 19%
32 | COCCCNC(=O)CC(NS(=O)(=O)c1ccc(OC)cc1)c1ccc(OC)cc1 (centres unmarked) | 22.3%
33 | O=C1N(Cc2ccccc2)c2ccc(Cl)cc2C12OCCO2 | 17.4%
34 | CC(C)CNS(=O)(=O)c1ccc(OCC(=O)NCC2CCCO2)c(Cl)c1 (centres unmarked) | -4.3%
35 | C=CCn1nnnc1SCC(=O)Nc1cccc(OC)c1 | -10.3%
36 | Cc1ccc(CNCC(O)c2ccccc2)s1.Cl (centres unmarked) | 13%
37 | CC(C)(C)C(=O)Nc1cccc(S(=O)(=O)NC2=NCCC2)c1 | 12.5%
38 | CC(C)Cc1nnc(NC(=O)CSc2ccccn2)s1 | -7.06%
39 | O=[N+]([O-])c1cc(/C=N/n2c(-c3cccnc3)n[nH]c2=S)ccc1Cl | 5.27%
40 | Cc1ccc(S(=O)(=O)N(C)Cc2nc(-c3ccccn3)no2)cc1 | 6.95%
41 | N#CCOC(=O)c1c2c(nc3ccccc13)CCC2 | -23.1%
42 | COc1cc(OC)cc(C(=O)N[C@H](C(=O)OCC(=O)c2ccc(F)cc2)C(C)C)c1 | 2.64%
43 | CCOC(=O)C1CCN(C(=O)c2sc3ncnc(N4CCC(C)CC4)c3c2C)CC1 | -73.2%
44 | O=C(NCCc1ccccc1)c1nc2ncccn2n1 | -3.81%

Row | Compound | hERG current change (%, negative = inhibition) at 10uM
45 | CCc1cc(=O)oc2c(C)c(OCC(=O)N3CC[C@@]4(O)CCCC[C@H]4C3)ccc12 | -14.6%
46 | CC(C)C(=O)Nc1cc2c3c(c1)CCC(=O)N3CCC2 | 9.46%
47 | O=C(O)c1ccc(C(=O)c2ccc3c(c2)C(=O)N(CCO)C3=O)cc1 | 19.2%
48 | COc1ccc(/C=N/Nc2nccnc2Cl)c(OC)c1 | -0.629%
49 | COc1ccc(C2NC(=O)CS2)cc1OC (centres unmarked) | -3.94%
50 | Oc1ccccc1/C=N/NC(=S)NC1CC2CCC1C2 (centres unmarked) | 17.7%
51 | COc1ccc(N2CCN(c3ccc4nnc(CCC(=O)Nc5ccc(C)cc5)n4n3)CC2)cc1 | -70.1%
52 | O=C(O)c1c(Cl)nc2ccccn12 | 39.7%
53 | Cc1ccc(NS(=O)(=O)c2ccc(OCC(=O)NCc3ccncc3)cc2)cc1 | -19.5%
54 | O=C(Nc1cccc(S(=O)(=O)Nc2ccc(Cl)cc2)c1)c1ccc2c(c1)OCCO2 | -12.2%
55 | COc1cccc(NC(=O)CCc2nnc3ccc(N4CCN(c5cccc(OC)c5)CC4)nn23)c1 | 13.6%
56 | CCOc1ncccc1C(=O)Nc1nc(SC)ns1 | 8.51%
57 | c1coc(CNc2nc3sc4c(c3c3ncnn23)CCCC4)c1 | 14.1%
58 | Cn1c(Cc2csc(N)n2)nnc1SC/C=C/c1ccccc1 | -10.7%
59 | O=C1CSC(c2ccc(Cl)cc2)N1Nc1nc(N2CCOCC2)nc(N2CCOCC2)n1 (centres unmarked) | -24.8%
60 | CC(C)NC(=O)NNC(=O)c1nn(-c2ccc(F)cc2)ccc1=O | -3.54%
61 | COc1cc2cc(CN(C(=O)Nc3ccccc3)C3CCCC3)c(=O)[nH]c2cc1OC | -44.2%
62 | CCOc1cccc(/C=N/NC(=S)Nc2cc(S(=O)(=O)N3CCOCC3)ccc2N2CCOCC2)c1O | 9.91%
63 | CC(=O)Nc1ccc2nc(N)sc2c1 | 15.8%
64 | O=C(C1=C(O)C(=O)N(CC2CCCO2)C1c1ccccc1)c1ccco1 (centres unmarked) | 14.1%
65 | Nn1nnc2ccccc21 | -0.689%
66 | CCOC(=O)c1c(C)c(C(=O)N2CCN(c3ccccc3)CC2)c(C)n1C | 2.11%

Row | Compound | hERG current change (%, negative = inhibition) at 10uM
67 | COc1cc(-c2nc(C(=O)NCC3CCCO3)cc3c2[nH]c2ccccc23)cc(OC)c1OC (centres unmarked) | -7.94%
68 | COc1ccc(-c2cnnn2-c2ccc(NC(=O)/C=C/c3ccc(OC)c(OC)c3)cc2)cc1 | -5.92%
69 | CCOC(=O)c1c(CSc2ccccc2)n(C)c2ccc(O)c(CN3CCN(C)CC3)c12 | -22.6%
70 | Cc1cc(-c2ccc(N=Nc3c(S(=O)(=O)[O-])cc4cc(S(=O)(=O)[O-])cc(N)c4c3O)c(C)c2)ccc1N=Nc1c(S(=O)(=O)[O-])cc2cc(S(=O)(=O)[O-])cc(N)c2c1O.[Na+] | 9.05%
71 | Cc1cc(=O)c2cccc(Br)c2[nH]1 | 0.296%
72 | CCc1ccc(NC(=O)CNC(=O)c2nn(-c3ccc(OC)cc3)c(=O)c3ccccc23)cc1 | -2.44%
73 | COc1cc2[nH]c(=O)n(CCC(=O)N3CCN(Cc4ccccc4)CC3)c(=O)c2cc1OC | -24.1%
74 | CSc1nc2nc(-c3ccccc3)cc(=O)n2[nH]1 | -9.66%
75 | COc1ccc(CN2CCCC(C(=O)N3CCCCC3)C2)c(OC)c1.O=C(O)C(=O)O (centres unmarked) | -26.7%
76 | CCC(CC)C(=O)Nc1cccc(S(=O)(=O)c2cccc(NC(=O)C(CC)CC)c2)c1 | 8.34%
77 | COc1ccc(CN(CC(=O)NC2CCCC2)C(=O)c2onc(C(N)=O)c2N)cc1 | -7.12%
78 | O=c1[nH]c(=S)c2ncn(-c3ccccc3)c2[nH]1 | 11.7%
79 | Cc1ccc(S(=O)(=O)NC(C(=O)N2CCOCCOCCOCC2)C(C)C)cc1 (centres unmarked) | 10.1%
80 | COc1ccc(N=C2SC(C(N)=O)CC(=O)N2Cc2ccc3c(c2)OCO3)cc1 (centres unmarked) | 16.2%
81 | Cn1c(SCC(=O)Nc2ccc3nc(SCC(=O)NC4CC4)sc3c2)nnc1-c1ccccc1 | -5.5%
82 | COc1ccccc1/C(C)=N/Oc1cc(N)cc([N+](=O)[O-])c1 | 10.9%
83 | O=C(NCc1cccs1)c1ccccc1[N+](=O)[O-] | -11.4%
84 | O=[N+]([O-])c1ccc(C[n+]2cccc3ccccc32)cc1.[Cl-] | -3.07%
85 | COc1cccc(C(=O)N=c2sc3c(C)ccc(OC)c3n2C)c1 | 0.931%
86 | O=[N+]([O-])CC(c1ccccc1)c1c[nH]c2ccccc12 (centres unmarked) | 10.6%
